# From PubChem BioAssay AID463173 (ICCB-Longwood Screening Facility, Harvard Medical School, 2010)
# The campaign covered roughly 52,000 compounds. About 1,700 (3.3%) were called active. No stated cut-off is given here; in the data, active means survival mostly below about 52% (no sharp cut-off); inactive means mostly above about 56%. Some of the results follow.
# System: Wild type
# Assay: growth inhibition of S. aureus wild type versus tarO mutant, primary screen, teichoic acid synthesis inhibitors, RN4220, OD600 (AID 463173)
# Conditions: S. aureus RN4220 wild type/DeltatarO growth, OD600, 18 h, stronger effect = lower value, screened at 18.75 µg/mL (by protocol)
row,Compound,survival
1,Cc1cccc(-c2nc3scc(CCNS(=O)(=O)c4ccc(F)cc4C)n3n2)c1,inactive: 87%
2,Cc1ccc(NC(=O)c2cc(S(=O)(=O)NCCC3=CCCCC3)ccc2F)cc1C,active: -3%
3,CCc1nnc(NC(=O)c2ccc(S(=O)(=O)N3CCCCC3C)cc2)s1 (configuration not stated),inactive: 103%
4,CCc1ccccc1NC(=O)CN(c1ccc(OC)cc1)S(=O)(=O)c1c(C)n[nH]c1C,inactive: 84%
5,Cc1c(NC(=O)c2cc(-c3ccc(Br)cc3)on2)c(=O)n(-c2ccccc2)n1C,inactive: 79%
6,COc1ccc(Nc2sc(C(=O)c3ccccc3)c(N)c2C(=O)Nc2cc(C)ccc2C)c(OC)c1,inactive: 69%
7,Cc1ccn2c(c1)nc(=O)c1cc(S(=O)(=O)N3CCCCC3)c(Cl)cc12,inactive: 75%
8,CCc1ccc(NC(=O)c2sc3nc(C)c(C(=O)Nc4ccc(C)cc4C)c(-c4ccco4)c3c2N)cc1,inactive: 88%
9,Cc1oc(-c2ccccc2)nc1CNC(=O)NC1CCCCC1,inactive: 72%
10,CCOC(=O)c1c(NC(=O)/C=C/c2ccc(OCC)c(OC)c2)sc2c1CCC2,inactive: 88%
11,COc1cccc(CNC(=O)CCCN2C(=O)CSc3c2c(C)nn3-c2ccccc2)c1OC,inactive: 124%
12,Cc1ccc(S(=O)(=O)c2nnn3c2nc(N2CCC(C)CC2)c2cc(Cl)ccc23)cc1C,inactive: 83%
13,CCN1C(=O)c2ccccc2S(=O)c2ccc(C(=O)N3CCN(c4ccccc4)CC3)cc21 (configuration not stated),inactive: 83%
14,COc1ccccc1C(=O)OCc1cc(=O)n2nc(C3CCCCC3)sc2n1,inactive: 99%
15,CCOC(=O)/C=C1\NC2(CCCC2)Cc2cc(OC)c(OC)cc21,inactive: 115%
16,Cc1cccc(NC(=O)CN2C(=O)c3ccccc3Sc3ncccc32)c1C,inactive: 90%
17,CCn1c(NCc2ccc(OC)c(OC)c2)nc2ccccc21,inactive: 127%
18,O=C(CCCc1ccccc1)NC1CCCC1,inactive: 110%
19,COc1ccc(CCNC(=O)CSC2=Nc3ccccc3C3=NC(CCC(=O)NCc4ccccc4)C(=O)N23)cc1OC (configuration not stated),inactive: 94%
20,Cc1noc2ncnc(N3CCCC(C(=O)NC(C)C)C3)c12 (configuration not stated),inactive: 78%
21,Cc1ccc(Cl)cc1N1CCN(CCCNc2ncnc3onc(-c4ccc(Cl)cc4)c23)CC1,inactive: 92%
22,CCOc1ccccc1CNC(=O)c1ccc2c(c1)sc1nc(-c3ccccc3)cn12,inactive: 78%

row,Compound,survival
1,Cc1cccc(CCNC(=O)C2CCN(c3ncnc4c3nc3n4CCCCC3)CC2)c1,inactive: 112%
2,COc1ccc(NC(=O)c2ccc(NC(=O)CCS(=O)(=O)c3cccs3)cc2)cc1OC,inactive: 74%
3,CCOC(=O)c1cc(-c2ccccc2)n(CCC(=O)Nc2cc(OCC)ccc2OCC)c1C,inactive: 45%
4,Cc1cccc2cc(CN(CC3CCCO3)C(=O)CC(C)(C)C)c3nnnn3c12 (configuration not stated),inactive: 120%
5,CCCCCn1c(CCCNC(=O)c2cccc(C)c2)nc2ccccc21,inactive: 50%
6,Cc1c(C)n(Cc2ccccc2)c2ccc(C(=O)NCc3ccc(OC(C)C)cc3)cc12,inactive: 115%
7,CCN(CC)CCCNC(=O)C1CCN(S(C)(=O)=O)CC1,inactive: 100%
8,O=C(CCCCn1c(=O)c2ccccc2n(CC(=O)Nc2ccccc2)c1=O)NCc1ccccc1Cl,inactive: 94%
9,CCc1nnc2c3ccccc3nc(Nc3ccccc3OC)n12,inactive: 72%
10,Cc1cccc(N2CCN(S(=O)(=O)c3ccc4oc(=O)c5ncn(C)c5c4c3)CC2)c1C,inactive: 81%
11,CCOC(=O)c1sc(NC(=O)C(C)Sc2nc(-c3ccccc3)cc(C(F)(F)F)n2)c(C(=O)OC)c1C (configuration not stated),inactive: 139%
12,Cc1oc(-c2ccc(C(=O)Nc3cccc(C(F)(F)F)c3)cc2)nc1CSc1ccccc1,inactive: 57%
13,COc1ccc(Nc2nc3ccc(Cl)cc3n3nnnc23)cc1OC,inactive: 109%
14,COc1cccc(-c2nc3cc(C)ccc3o2)c1,inactive: 116%
15,COc1ccc(-c2nc3scc(CCNS(=O)(=O)c4ccc(F)c(C(F)(F)F)c4)n3n2)cc1OC,inactive: 79%
16,CCCC(=O)C1=C(c2ccc(C)cc2)N(C(=O)CCC)n2cnnc2S1,inactive: 134%
17,O=C(Oc1ccccc1Cl)c1cc(-c2ccc3c(c2)OCCO3)on1,active: -7%
18,CCN1CCN(c2cc(C)c3cc(NC(=O)c4cccc(Cl)c4)ccc3n2)CC1,inactive: 57%
19,c1ccc(-c2cc3ccsc3s2)cc1,inactive: 111%
20,Cc1ccc(NC(=O)c2cnc(N3CCCCC3)c3ccccc23)cc1Cl,inactive: 82%
21,Cc1ccc(OCCn2cc(C(=O)c3ccco3)c3ccccc32)cc1C,inactive: 24%
22,COC(=O)c1scc(-c2ccc(C)cc2)c1S(=O)(=O)Nc1cccc(Cl)c1C,inactive: 73%

row,Compound,survival
1,Cc1n[nH]c(C)c1CCc1nc2c3ccccc3nc(SCC(=O)Nc3ccc(F)cc3)n2n1,inactive: 115%
2,Cc1ccc(CNC(=O)Cn2cc(S(=O)(=O)Cc3cccc(Cl)c3)c3ccccc32)cc1,inactive: 77%
3,COc1ccc(-c2nc3nc(C)cc(Nc4cccc(C(F)(F)F)c4)n3n2)cc1,inactive: 93%
4,COc1ccc(NC(=O)COc2ccc(S(=O)(=O)NC3CCCCC3)cc2)c(OC)c1,inactive: 66%
5,O=C(CCCc1nc(-c2ccccc2)no1)Nc1cc(C(F)(F)F)cc(C(F)(F)F)c1,inactive: 27%
6,O=C(Nc1nnc(S(=O)(=O)N2CCCCC2)s1)c1ccc(F)cc1,inactive: 90%
7,Cc1cc(C)c(Cn2c3ccccc3c3cnn(CC(=O)NCc4ccc(Cl)cc4)c(=O)c32)c(C)c1,inactive: 133%
8,O=C1CN(c2ccccc2)C(=Nc2ccccc2)S1,inactive: 101%
9,Cc1noc(Cn2c(=O)c3ccccc3n(CC(=O)Nc3ccc(F)cc3F)c2=O)n1,inactive: 69%
10,NC(=O)c1oc2ccccc2c1NC(=O)c1ccccc1,inactive: 99%
11,CCOc1ccc(NC(=O)c2cc(S(=O)(=O)N3CCCC3)c[nH]2)cc1,inactive: 113%
12,CC1=C(C(=O)Nc2ccccc2C)C(c2ccco2)n2ncnc2N1 (configuration not stated),inactive: 78%
13,Cc1sc(-n2cccc2)c(C(C)NC(=O)Nc2ccccc2Cl)c1C (configuration not stated),inactive: 77%
14,COC(=O)c1ccccc1NC(=O)c1cc2c(s1)-c1ccccc1OC2,inactive: 53%
15,O=C(CN(c1cc(C(F)(F)F)ccc1Cl)S(=O)(=O)c1ccccc1)NCCc1ccccc1,inactive: 74%
16,COc1ccc(-c2c(C#N)c(SCC(=O)Nc3ccc(Br)cc3)nc(C)c2C(=O)Nc2ccccc2)cc1,inactive: 105%
17,CCOc1ccc(CCNC(=O)c2ccc3c(c2)N(Cc2ccccc2)C(=O)c2ccccc2S3=O)cc1OCC (configuration not stated),inactive: 83%
18,O=C(CSc1nc(-c2ccccc2)c2ccccc2n1)Nc1ccc(F)cc1,inactive: 94%
19,Cc1cc(C)c(S(=O)(=O)NCCc2cc3ccc(C)cc3[nH]c2=O)c(C)c1,inactive: 62%
20,CC1=C(C(=O)N2CCCCC2)C(c2cccc(Cl)c2)n2c(nc3ccccc32)N1 (configuration not stated),inactive: 73%
21,COc1ccc(NC(=O)CN2C(=O)CCc3cc(S(=O)(=O)N4CCOCC4)ccc32)c(OC)c1,inactive: 66%
22,CCOc1ccccc1NC(=O)Cn1c(=O)n(-c2ccccc2)c(=O)c2c1c1cc(C)ccc1n2C,inactive: 84%

row,Compound,survival
1,COc1ccc(-c2cn3c(n2)sc2cc(C(=O)NCCCN4CCCCC4)ccc23)cc1,inactive: 81%
2,O=C(c1cc2nc(-c3ccccc3)cc(C(F)(F)F)n2n1)N1CCCC1,inactive: 111%
3,CCN(C(=O)CSc1nnc(-c2cc3occc3n2C)n1-c1ccccc1C)c1cccc(C)c1,inactive: 69%
4,CCc1ccc(CNC(=O)CSc2cc(=O)n(CC)c3ccccc23)cc1,inactive: 79%
5,CCNC(=O)c1c(C)oc2ncn(C)c(=O)c12,inactive: 119%
6,CCN(CC)C(=O)c1cnn(-c2ccc(F)cc2)c1-n1cccc1,inactive: 45%
7,COc1ccc(N2CCN(C(=O)c3ccc4c(=O)n(CCc5ccc(OC)c(OC)c5)c(=O)[nH]c4c3)CC2)cc1,inactive: 126%
8,CCc1nn(CC(=O)N(CC)Cc2ccccc2)c(=O)c2cc3occc3n12,inactive: 70%
9,COc1ccc(-c2nc(N)n(C(=O)c3ccco3)n2)cc1,inactive: 111%
10,Cc1nn(CCCC(=O)Nc2cc(C(F)(F)F)ccc2Cl)c(=O)c2c1sc1ccccc12,inactive: 91%
11,CCOc1ccc(-n2c(=O)c3c4c(sc3n(Cc3cccc(C)c3)c2=O)CCCC4)cc1,inactive: 68%
12,Clc1ccc2nc(Nc3ccccc3Cl)nc(-c3ccccc3)c2c1,inactive: 76%
13,CCc1ccc(NS(=O)(=O)c2ccc3[nH]cc(C(=O)NCc4ccc(C)cc4)c(=O)c3c2)cc1,inactive: 67%
14,CCOCCCNC(=O)C1CCN(c2cc(C)nc3c(-c4ccc(Cl)cc4)c(C)nn23)CC1,inactive: 85%
15,CCc1ccc(NCc2cc3cc4c(cc3n(CC(=O)Nc3ccccc3Cl)c2=O)OCO4)cc1,inactive: 89%
16,Cc1ccc(-c2cn3c(n2)sc2cc(C(=O)NC4CCCc5ccccc54)ccc23)cc1 (configuration not stated),inactive: 101%
17,CC(C)(C)c1ccc(CN(Cc2ccco2)Cc2nnnn2C2CCCCC2)cc1,inactive: 113%
18,C/C(=N\NC(N)=O)C1CC(Cc2ccccc2)C(=O)O1 (configuration not stated),inactive: 101%
19,CCOc1ccccc1NC(=O)Nc1cc(C(=O)NCc2ccc(C)cc2)ccc1N1CCCC1,inactive: 92%
20,COc1ccc(OC)c(NC(=O)c2c(NCc3ccc(OC)c(OC)c3)sc3c2CCC3)c1,inactive: 75%
21,O=C(Nc1ccc(Br)cc1F)C(NS(=O)(=O)c1cccc2nsnc12)c1ccccc1 (configuration not stated),inactive: 81%
